Growth of fresh clinical P. falciparum isolates by hypoxanthine uptake over 42 h; for most isolates 1.6-1,647 nM mefloquine, 0.044-87 nM artesunate, 10-10,256 nM chloroquine, 2.4-236 nM lumefantrine. EC50, lower = more sensitive; slope from the same fit, higher = steeper. No active / inactive call. Fits with a coefficient of variation above 100% are not listed here; 15-28% of fits exceed 15%. Isolates are numbered anew.
How the values were obtained:
mefloquine [1] = compound: T1, OC(c1cc(C(F)(F)F)nc2c(C(F)(F)F)cccc12)C1CCCCN1 [mefloquine]; experiment: slope of the dose-response curve (dimensionless); higher = steeper concentration-effect curve
Procedure: (§1)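 Hypoxanthine uptake by fresh isolates, duplicate serial dilutions, 24 h of drug plus 18 h after the label; sigmoid fit per isolate.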

artesunate [2] = compound: T2, C[C@H]1[C@H](OC(=O)CCC(=O)O)O[C@@H]2O[C@@]3(C)CC[C@H]4[C@H](C)CC[C@@H]1[C@@]24OO3 [artesunate]; experiment: as above
Procedure: as §1

lumefantrine [3] = compound: T3, CCCCN(CCCC)CC(O)c1cc(Cl)cc2c1-c1ccc(Cl)cc1/C2=C/c1ccc(Cl)cc1 [lumefantrine]; experiment: as above
Procedure: as §1

mefloquine [4] = compound: T1, mefloquine
Procedure: as §1

artesunate [5] = compound: T2, artesunate
Procedure: as §1

lumefantrine [6] = compound: T3, lumefantrine
Procedure: as §1

chloroquine [7] = compound: T4, CCN(CC)CCCC(C)Nc1ccnc2cc(Cl)ccc12 [chloroquine]; experiment: slope of the dose-response curve (dimensionless); higher = steeper concentration-effect curve
Procedure: as §1

chloroquine [8] = compound: T4, chloroquine
Procedure: as §1

| Test System | slope (mefloquine [1]) | slope (artesunate [2]) | slope (lumefantrine [3]) | EC50 of parasite growth (mefloquine [4]) [µg/mL] | EC50 of parasite growth (artesunate [5]) [µg/mL] | EC50 of parasite growth (lumefantrine [6]) [µg/mL] | slope (chloroquine [7]) | EC50 of parasite growth (chloroquine [8]) [µg/mL] |
| --- | --- | --- | --- | --- | --- | --- | --- | --- |
| Plasmodium falciparum isolate 218 (pfmdr1 allele: 86N, 1042N, pfmdr1 copies: 2) | 3.17 | 9.9 | 2.14 | 0.0432 | 0.00237 | 0.0418 | – | – |
| Plasmodium falciparum isolate 287 (pfmdr1 allele: 86N, 1042N, pfmdr1 copies: 2) | 2.36 | 2.44 | 1.84 | 0.0241 | 0.00208 | 0.00372 | – | – |
| Plasmodium falciparum isolate 126 (pfmdr1 allele: 86N, 1042N, pfmdr1 copies: 3) | 0.943 | 10 | 2.83 | 0.00607 | 0.00305 | 0.0412 | – | – |
| Plasmodium falciparum isolate 264 (pfmdr1 allele: 86Y, pfmdr1 copies: 1) | 2.66 | 4.73 | 2.14 | 0.00674 | 0.00135 | 0.0317 | – | – |
| Plasmodium falciparum isolate 469 (pfmdr1 allele: 1042D, pfmdr1 copies: 1) | 1.68 | 1.88 | 1.07 | 0.00717 | 0.00113 | 0.0213 | – | – |
| Plasmodium falciparum isolate 225 (pfmdr1 allele: 86N, 1042N, pfmdr1 copies: 1) | 2.03 | 3.45 | 3.09 | 0.0114 | 0.00151 | 0.0373 | – | – |
| Plasmodium falciparum isolate 277 (pfmdr1 allele: 86N, 1042N, pfmdr1 copies: 2) | 3.02 | 6.66 | 1.82 | 0.0313 | 0.00266 | 0.0679 | – | – |
| Plasmodium falciparum isolate 397 (pfmdr1 allele: 86Y, pfmdr1 copies: 1) | 3.99 | 5.42 | 3.44 | 0.00426 | 0.000671 | 0.0172 | – | – |
| Plasmodium falciparum isolate 161 (pfmdr1 allele: 1042D, pfmdr1 copies: 1) | 2.32 | 4.31 | 2.65 | 0.00443 | 0.000502 | 0.00293 | – | – |
| Plasmodium falciparum isolate 464 (pfmdr1 allele: 86N, 1042N, pfmdr1 copies: 3) | 4.9 | 9.99 | 2.09 | 0.115 | 0.00105 | 0.0377 | – | – |
| Plasmodium falciparum isolate 42 (pfmdr1 allele: 86N, 1042N, pfmdr1 copies: 1) | 2.69 | 5.07 | 3.77 | 0.0173 | 0.000467 | 0.0245 | – | – |
| Plasmodium falciparum isolate 468 (pfmdr1 allele: 86N, 1042N, pfmdr1 copies: 1) | 1.33 | 1.27 | 2.67 | 0.0134 | 0.00147 | 0.0252 | – | – |
| Plasmodium falciparum isolate 329 (pfmdr1 allele: 86N, 1042N, pfmdr1 copies: 1) | 2.75 | 4.26 | 2.12 | 0.0277 | 0.00125 | 0.0302 | – | – |
| Plasmodium falciparum isolate 441 (pfmdr1 allele: 86N, 1042N, pfmdr1 copies: 1) | 2.32 | – | 7.58 | 0.0217 | – | 0.0775 | – | – |
| Plasmodium falciparum isolate 480 (pfmdr1 allele: 86N, 1042N, pfmdr1 copies: 1) | 1.54 | 5.63 | – | 0.0425 | 0.00205 | – | 4.13 | 0.198 |
| Plasmodium falciparum isolate 246 (pfmdr1 allele: 1042D, pfmdr1 copies: 1) | 4.17 | 3.47 | – | 0.0344 | 0.00276 | – | 3.11 | 0.664 |
| Plasmodium falciparum isolate 456 (pfmdr1 allele: 86N, 1042N, pfmdr1 copies: 2) | 2.36 | 10 | – | 0.0698 | 0.00407 | – | 6.7 | 0.352 |
| Plasmodium falciparum isolate 223 (pfmdr1 allele: 86N, 1042N, pfmdr1 copies: 1) | 2.41 | 10 | – | 0.018 | 0.0011 | – | 0.925 | 0.0421 |
| Plasmodium falciparum isolate 435 (pfmdr1 allele: 86N, 1042N, pfmdr1 copies: 4) | 2.21 | 1.62 | – | 0.0729 | 0.00649 | – | 1.9 | 0.258 |
| Plasmodium falciparum isolate 96 (pfmdr1 allele: 86N, 1042N, pfmdr1 copies: 2) | 2.39 | 4.51 | – | 0.065 | 0.00227 | – | 2.44 | 0.135 |
| Plasmodium falciparum isolate 320 (pfmdr1 allele: 86N, 1042N, pfmdr1 copies: 3) | 3.89 | – | 2.61 | 0.0608 | – | 0.0868 | – | – |
| Plasmodium falciparum isolate 124 (pfmdr1 allele: 86N, 1042N, pfmdr1 copies: 2) | 2.81 | 7.15 | – | 0.0559 | 0.00121 | – | 3.05 | 0.0912 |
| Plasmodium falciparum isolate 104 (pfmdr1 allele: 86N, 1042N, pfmdr1 copies: 1) | 2.42 | 2.35 | – | 0.0113 | 0.00123 | – | 2.14 | 0.0803 |
| Plasmodium falciparum isolate 63 (pfmdr1 allele: 86N, 1042N, pfmdr1 copies: 2) | 2.87 | 3.05 | – | 0.0572 | 0.00137 | – | 1.41 | 0.0397 |

| Test System | slope (mefloquine [1]) | slope (artesunate [2]) | slope (lumefantrine [3]) | EC50 of parasite growth (mefloquine [4]) [µg/mL] | EC50 of parasite growth (artesunate [5]) [µg/mL] | EC50 of parasite growth (lumefantrine [6]) [µg/mL] | slope (chloroquine [7]) | EC50 of parasite growth (chloroquine [8]) [µg/mL] |
| --- | --- | --- | --- | --- | --- | --- | --- | --- |
| Plasmodium falciparum isolate 193 (pfmdr1 allele: 86N, 1042N, pfmdr1 copies: 2) | 4.67 | 8.9 | – | 0.0758 | 0.00193 | – | 5.07 | 0.149 |
| Plasmodium falciparum isolate 429 (pfmdr1 allele: 86N, 1042N, pfmdr1 copies: 2) | 4.62 | 3.92 | – | 0.0634 | 0.00549 | – | 2.16 | 0.0944 |
| Plasmodium falciparum isolate 311 (pfmdr1 allele: 86N, 1042N, pfmdr1 copies: 3) | 3.66 | 5.95 | – | 0.143 | 0.0027 | – | 4.87 | 0.201 |
| Plasmodium falciparum isolate 358 (pfmdr1 allele: 86N, 1042N, pfmdr1 copies: 4) | 1.39 | 1.81 | – | 0.0218 | 0.000933 | – | 2.42 | 0.272 |
| Plasmodium falciparum isolate 295 (pfmdr1 allele: 86Y, pfmdr1 copies: 1) | 2.51 | 3.71 | – | 0.00648 | 0.00149 | – | 7.14 | 0.209 |
| Plasmodium falciparum isolate 357 (pfmdr1 allele: 86N, 1042N, pfmdr1 copies: 1) | 2.87 | 4.4 | – | 0.00867 | 0.00203 | – | 2.5 | 0.142 |
| Plasmodium falciparum isolate 377 (pfmdr1 allele: 86N, 1042N, pfmdr1 copies: 1) | 5.21 | 10 | – | 0.0572 | 0.000844 | – | 2.45 | 0.35 |
| Plasmodium falciparum isolate 326 (pfmdr1 allele: 86N, 1042N, pfmdr1 copies: 2) | 4.16 | 9.99 | – | 0.0716 | 0.00174 | – | 1.75 | 0.0878 |
| Plasmodium falciparum isolate 70 (pfmdr1 allele: 86N, 1042N, pfmdr1 copies: 2) | 4.13 | 9.7 | – | 0.074 | 0.00094 | – | 3.39 | 0.0914 |
| Plasmodium falciparum isolate 57 (pfmdr1 allele: 86N, 1042N, pfmdr1 copies: 3) | 5.24 | 6.13 | – | 0.0641 | 0.00371 | – | 3.49 | 0.0622 |
| Plasmodium falciparum isolate 262 (pfmdr1 allele: 86N, 1042N, pfmdr1 copies: 3) | 2.72 | 5.69 | – | 0.103 | 0.00309 | – | 4.23 | 0.128 |
| Plasmodium falciparum isolate 227 (pfmdr1 allele: 86Y, pfmdr1 copies: 1) | 1.72 | 3.68 | – | 0.0138 | 0.000415 | – | 2.93 | 0.164 |
| Plasmodium falciparum isolate 391 (pfmdr1 allele: 86N, 1042N, pfmdr1 copies: 3) | 1.86 | 4.7 | – | 0.0382 | 0.00225 | – | 2.7 | 0.311 |
| Plasmodium falciparum isolate 270 (pfmdr1 allele: 86N, 1042N, pfmdr1 copies: 2) | 3.23 | 10 | – | 0.145 | 0.00101 | – | 1.81 | 0.124 |
| Plasmodium falciparum isolate 345 (pfmdr1 allele: 86N, 1042N, pfmdr1 copies: 3) | 3.14 | 4.21 | – | 0.108 | 0.0183 | – | 5.05 | 0.105 |
| Plasmodium falciparum isolate 168 (pfmdr1 allele: 86N, 1042N, pfmdr1 copies: 1) | 4.09 | 4.65 | – | 0.0291 | 0.00351 | – | 5.15 | 0.139 |
| Plasmodium falciparum isolate 236 (pfmdr1 allele: 86N, 1042N, pfmdr1 copies: 1) | 2.59 | 4.04 | – | 0.0395 | 0.00106 | – | 3.32 | 0.306 |
| Plasmodium falciparum isolate 34 (pfmdr1 allele: 86N, 1042N, pfmdr1 copies: 1) | 9.98 | 5.88 | – | 0.0689 | 0.00209 | – | 6.4 | 0.179 |
| Plasmodium falciparum isolate 385 (pfmdr1 allele: 86N, 1042N, pfmdr1 copies: 1) | 2.02 | 5.57 | – | 0.0999 | 0.00334 | – | 5.23 | 0.448 |
| Plasmodium falciparum isolate 459 (pfmdr1 allele: 86N, 1042N, pfmdr1 copies: 3) | 4.17 | 10 | – | 0.0863 | 0.00177 | – | 6.63 | 0.132 |
| Plasmodium falciparum isolate 209 (pfmdr1 allele: 86N, 1042N, pfmdr1 copies: 4) | 4.76 | 10 | – | 0.208 | 0.00671 | – | 3.1 | 0.244 |
| Plasmodium falciparum isolate 325 (pfmdr1 allele: 1042D, pfmdr1 copies: 1) | 4.62 | 6.56 | – | 0.0676 | 0.00279 | – | 2.53 | 0.515 |
| Plasmodium falciparum isolate 442 (pfmdr1 allele: 86N, 1042N, pfmdr1 copies: 1) | 3.39 | 2.16 | – | 0.0244 | 0.00138 | – | 2.94 | 0.0764 |

— the supplement of paper PMC3722116
